# Measurements reported in PMC12820563.
# The list shows a part of the results. The list includes weakly bound sequences.
# Target: T1, MBP-FoxP3dN (UniProt Q99JB6)
# T1 sequence: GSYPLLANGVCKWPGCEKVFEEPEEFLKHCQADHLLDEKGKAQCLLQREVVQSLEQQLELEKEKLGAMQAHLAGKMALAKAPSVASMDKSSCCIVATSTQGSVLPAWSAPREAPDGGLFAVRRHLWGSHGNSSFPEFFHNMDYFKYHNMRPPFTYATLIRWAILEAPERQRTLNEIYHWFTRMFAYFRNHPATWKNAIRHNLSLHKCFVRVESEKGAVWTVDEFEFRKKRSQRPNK
# Test: PD-seq (MBP pull-down with sequencing)
# Settings: 20 mM Tris-HCl pH 7.5, 100 mM NaCl, 1.5 mM MgCl2, 0.4 uM protein, 0.1 uM dsDNA library, 30 min, room temperature, amylose pull-down; high values mean tight binding; double strand, one strand shown
row,Sequence,binding signal (RPM ratio (pull-down/input))
1,GATGATTGTTCTCCCAGCTGATGAATTTACGCAGTCGAGTAAACAAATTTTCCTAATCTTTCTGTTCAAGCGCCATCTAC,0.602
2,GATGATTGTTCTCCCAGCTGATGAATTGGGACCGTCGAGTAAACAAATTTTCCTAATCTTTCTGTTCAAGCGCCATCTAC,0.37
3,GATGATTGTTCTCCCAGCTGATGAATTGTTTAAATCGAGTAAACAAATTTTCCTAATCTTTCTGTTCAAGCGCCATCTAC,0.701
4,GATGATTGTTCTCCCAGCTGATGAATTGACACGTTCGAGTAAACAAATTTTCCTAATCTTTCTGTTCAAGCGCCATCTAC,0.479
5,GATGATTGTTCTCCCAGCTGATGAATTCTGATCTTCGAGTAAACAAATTTTCCTAATCTTTCTGTTCAAGCGCCATCTAC,0.364
6,GATGATTGTTCTCCCAGCTGATGAATTTCGCGGTTCGAGTAAACAAATTTTCCTAATCTTTCTGTTCAAGCGCCATCTAC,0.598
7,GATGATTGTTCTCCCAGCTGATGAATTAGACATGTCGAGTAAACAAATTTTCCTAATCTTTCTGTTCAAGCGCCATCTAC,0.581
8,GATGATTGTTCTCCCAGCTGATGAATTCATGTGTTCGAGTAAACAAATTTTCCTAATCTTTCTGTTCAAGCGCCATCTAC,1.39
9,GATGATTGTTCTCCCAGCTGATGAATTAACAAAGTCGAGTAAACAAATTTTCCTAATCTTTCTGTTCAAGCGCCATCTAC,0.297
10,GATGATTGTTCTCCCAGCTGATGAATTCCTCGGGTCGAGTAAACAAATTTTCCTAATCTTTCTGTTCAAGCGCCATCTAC,0.175
11,GATGATTGTTCTCCCAGCTGATGAATTTAAGAAGTCGAGTAAACAAATTTTCCTAATCTTTCTGTTCAAGCGCCATCTAC,0.198
12,GATGATTGTTCTCCCAGCTGATGAATTAATTTCATCGAGTAAACAAATTTTCCTAATCTTTCTGTTCAAGCGCCATCTAC,0.499
13,GATGATTGTTCTCCCAGCTGATGAATTGGGGGGCTCGAGTAAACAAATTTTCCTAATCTTTCTGTTCAAGCGCCATCTAC,0.477
14,GATGATTGTTCTCCCAGCTGATGAATTCGCTTTCTCGAGTAAACAAATTTTCCTAATCTTTCTGTTCAAGCGCCATCTAC,2.03
15,GATGATTGTTCTCCCAGCTGATGAATTCTGTTTCTCGAGTAAACAAATTTTCCTAATCTTTCTGTTCAAGCGCCATCTAC,3
16,GATGATTGTTCTCCCAGCTGATGAATTAAGGAGGTCGAGTAAACAAATTTTCCTAATCTTTCTGTTCAAGCGCCATCTAC,0.2
17,GATGATTGTTCTCCCAGCTGATGAATTAGCTTGTTCGAGTAAACAAATTTTCCTAATCTTTCTGTTCAAGCGCCATCTAC,3.92
18,GATGATTGTTCTCCCAGCTGATGAATTTGAGCTGTCGAGTAAACAAATTTTCCTAATCTTTCTGTTCAAGCGCCATCTAC,0.387
